± gives the standard deviation of the averaged measurements. The list shows a part of the results.

This assay has as its system PfAP2-G AP2 domain (GST-tagged). Kind of assay: gcPBM binding intensity (ln(normalized median fluorescence intensity)); higher = stronger DNA binding. Put shortly:
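Binding intensity values are the highest Masliner-normalised natural-log median intensity among replicate spots of either probe orientation. The binding step lasted 1 h in 1× PBS with 1% milk, 0.2 mg/ml BSA, 0.5% salmon testes DNA and 0.03% Triton X-100, using GST-tagged P. falciparum DNA-binding domains expressed in E. coli on an Agilent 4 × 180k array of primer-extended double-stranded 36-bp intergenic genomic probes plus negative controls. Alexa488 anti-GST antibody and a 488 nm scan detected bound protein.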
Take “TTTTTATTCGATGATCAAATAGGTATATACAAAAAA [CACACA_negctrl_site1813]”: the “gcPBM binding intensity (ln)” value was 10.2 ± 0.31.

On to “AATAATAATAGTAATATGTACATATATATATATATA [TGCATGCA_negctrl_site542]”, for which the “gcPBM binding intensity (ln)” value came out at 11.2 ± 0.67.

As to “TATAAGCAAAAACACACACACATATATATATATATA [CACACA_site3804]”, the “gcPBM binding intensity (ln)” value turned out to be 10.1 ± 0.7.

“AAATGAAATTTGTATACACACAAATATATATATATA [CACACA_site836]”: the “gcPBM binding intensity (ln)” value is 10.1 ± 0.32.

For “TAATATTATAGATAAACACACATACACATGTAAATA [CACACA_site7049]”, the “gcPBM binding intensity (ln)” value was 10.1 ± 0.071.

Turning to “ATTATTAAGTTTCACAAGAACATTGTTAACAATTTT [CACACA_negctrl_site1128]”, the “gcPBM binding intensity (ln)” value was found to be 9.935 ± 0.007.

“TATTAAGTATTTTACGTACACACTTATAAATGTACA [CACACA_site3885]”: the “gcPBM binding intensity (ln)” value turned out to be 11.7 ± 0.82.

As to “TGCATGCATTATCATAGTACATATAATGTTGTATAA [XGTACX_site2775]”, the “gcPBM binding intensity (ln)” value worked out at 10.7 ± 0.45.

As for “TAATCTTTCGTACATGTACACACAGAAAAAAAAAAA [CACACA_site8798]”, the “gcPBM binding intensity (ln)” value worked out at 11.8 ± 1.3.

Turning to “CTGAACCCGTTATGGTGTACATAAAATAAGACACAG [XGTACX_site3484]”, the “gcPBM binding intensity (ln)” value was 11.6 ± 0.96.

Take “ATTACATGCAATATATGTACGTAATATATATATATA [XGTACX_site2300]”: the “gcPBM binding intensity (ln)” value stood at 11.4 ± 0.86.

Turning to “AATTTATATTTTCGTAGTACGTATTTTATTCTTTTG [XGTACX_site4162]”, the “gcPBM binding intensity (ln)” value came to 11.4 ± 0.8.

Take “TATAAGGTGTCCTATACACACTCCAATAGATATATA [CACACA_site7066]”: the “gcPBM binding intensity (ln)” value was found to be 10.5 ± 0.42.

“ACAGAATATTTAATTCAACACACATACATATTTATT [CACACA_site8734]”: the “gcPBM binding intensity (ln)” value stood at 9.96 ± 0.11.

As for “ATTTATATCCTTAAACGTACATTGTATTGTATTTTA [XGTACX_site6080]”, the “gcPBM binding intensity (ln)” value turned out to be 11.1 ± 0.58.

As to “AAAAAAAAAAAGTACACACATACATATAAATATATA [CACACA_site1809]”, the “gcPBM binding intensity (ln)” value amounted to 11.6 ± 0.95.

Regarding AAAGACGCAAAATTGGTGCGCTGCTTTTAGCATTTT, the “gcPBM binding intensity (ln)” value stood at 9.9 ± 0.12.

On to “AATAATCATGATCAAAGTACTTATGAATACCAAAAA [XGTACX_site2572]”, for which the “gcPBM binding intensity (ln)” value was 11 ± 0.61.

For the sequence “ATTAAAAAATTATTCACACAAAATAAAAAAATGAAA [CACACA_site4918]”, the “gcPBM binding intensity (ln)” value amounted to 10 ± 0.11.

“TACACATAATATAATGCATGTGTGATGTATGTTTAA [TGCATGCA_site697]”: the “gcPBM binding intensity (ln)” value turned out to be 9.935 ± 0.078.

For “ATATTTAGGATTATCTGTACATAATATGTTTAATTA [XGTACX_site3426]”, the “gcPBM binding intensity (ln)” value was 10.9 ± 0.71.

On to “TGATAACCTAATAATACACACACATGAATATATATA [CACACA_site8226]”, for which the “gcPBM binding intensity (ln)” value turned out to be 9.97 ± 0.18.

On to “GTCGCCAAAAGGTGTACACATAATGCATTATCATAA [CACACA_site6112]”, for which the “gcPBM binding intensity (ln)” value is 11.7 ± 0.88.

With “TAAAAAAAATAGCATACACACATATATACATATATA [CACACA_site658]”, the “gcPBM binding intensity (ln)” value is 9.73 ± 0.16.

As to “TTGTATTCCTTTTACAACTACCATGAAGAGAATTTT [CACACA_negctrl_site1286]”, the “gcPBM binding intensity (ln)” value was 10.1 ± 0.2.

For the origin of these results see the supplement of paper PMC11417369.
